Measurements published in the supplement of paper PMC11417369.
This is one part of the list.

test system: PfHDP1 homeodomain (GST-tagged); experiment: gcPBM binding intensity (ln(normalized median fluorescence intensity)); higher = stronger DNA binding
Outline: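 Each value is the highest Masliner-normalised natural-log median intensity across replicate spots of either orientation of a probe. The probes were primer-extended double-stranded 36-bp intergenic genomic sequences on an Agilent 4 × 180k array, alongside negative controls, exposed for 1 h to GST-tagged P. falciparum DNA-binding domains expressed in E. coli. Bound protein was picked up with Alexa488 anti-GST antibody and scanned at 488 nm.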

| Sequence | gcPBM binding intensity (ln) |
| --- | --- |
| CATACAGACGAACACACACACATATAAATATAAATA [CACACA_site6443] | 6.86 |
| TATTATTTTTTTTTTTGTACATATATGTATATATAT [XGTACX_site8471] | 6.44 |
| TATAATAAAATTGGTAGTACATTAATTTATGTATAG [XGTACX_site3059] | 6.23 |
| AACCACATGGTGTAATGTACATTACCTTAACAATAA [XGTACX_site3055] | 6.77 |
| AAATATTATATATATACACACACACCGGCATGCACA [CACACA_site7916] | 7.56 |
| AAGGATTACAAAAAAAGTACAAATGGATTTTTTCCC [XGTACX_site8905] | 6.22 |
| AAAAAAATTCTTGGCGCACACACTTTAAAAATTAAA [CACACA_site597] | 6.5 |
| CTTACAAATAAACAACGTACTTATTCGAATTATGCT [XGTACX_site2431] | 6.41 |
| GCATAAAATATGATCGCACACTGTTTAAAATACTTA [CACACA_site828] | 6.46 |
| ATATTACTAATTAATGGTACACGTTATAATAAACTA [XGTACX_site7051] | 6.45 |
| AGGTAGTTCTGTATCACACACATATAAATATAAATA [CACACA_site7110] | 6.77 |
| AAAATATATACAAGCAAACACACGTAATATATATTA [CACACA_site2152] | 6.66 |
| ATACCTTCTTCATTCACACATATACGTAAAATGTTC [CACACA_site5657] | 7.04 |
| TTTAAACTAGAACAAGTGCAGATATGTATAATAATA | 7.27 |
| TTTTATTTTGGAACGTGTACATATAATTATTTATTG [XGTACX_site8094] | 6.52 |
| TATTTTTAGAAAATAAAGAAGGAGAATTGAAAATAT [CACACA_negctrl_site361] | 6.56 |
| AAGAAAAGATATATATATAAATATATATATATATAT [TGCATGCA_negctrl_site353] | 9.09 |
| ATTTATTTTTATCAAGCATGCATAAAAAATAAATTA [TGCATGCA_site440] | 6.53 |
| TTTATACAATTAGACACACACAAAAAGTATAAATAT [CACACA_site6637] | 6.97 |

| Sequence | gcPBM binding intensity (ln) |
| --- | --- |
| ATATCACATTCCACGGTACACACTAATAGAAAAATC [CACACA_site9204] | 6.68 |
| GGAACATATGAACTCACACACATTTTCACTTAAATA [CACACA_site3684] | 6.54 |
| AATATTTATAAATTTACACACACACCGGTGAACATA [CACACA_site8579] | 6.97 |
| TAAAATGATAAATGAATGTGATCATTTTATAAAATA [CACACA_negctrl_site674] | 6.3 |
| ATATATCACATGAACATTAAAAAAAAAAAAGAGGGG [TGCATGCA_negctrl_site187] | 6.24 |
| TTTAAAAAAAAAAAAAAAAATTCTACATGTAATTTA [CACACA_negctrl_site1205] | 5.76 |
| TGACATAAATTTAATACACACACAAAGAAAAAAAAA [CACACA_site9354] | 6.83 |
| TGATTAATAGCAGGTAGTACTATAATAATATAAATA [XGTACX_site2776] | 6.55 |
| GTTCCATATATTACATGTACATATTTTTACATTTAA [XGTACX_site660] | 7.5 |
| AGAAGAAAAGAAATATGTACATAAACGTCTGAACTA [XGTACX_site1699] | 6.62 |
| ATAACAAATATGATAGCATGCTACATATTACAACTT [TGCATGCA_site524] | 6.81 |
| AAGATGAACCTTTACACATGCAACAAAAAATATACA [TGCATGCA_site166] | 7.26 |
| ATCAACATTATGTTTAGTACTTAGTGAATTGTTAAT [XGTACX_site4913] | 6.36 |
| ATAAAAAAAAGAAAAACACACACATATATATATATA [CACACA_site8243] | 9.25 |
| ATAATAATAGTAATATGTACATATATATATATATAT [XGTACX_site7437] | 9.36 |
| ATATATATATATATATGTACATATTTACATTTTGTA [XGTACX_site3529] | 9.38 |
| TATACACATTCGCGTTGTACAAAAAAAAAAAAAAAG [XGTACX_site2880] | 6.34 |
| AATAAAGGAGCCTATGAACACACACCGGTACATATA [CACACA_site9352] | 6.45 |
| TCAAAAAAGACACACCGTACATACTATTTGGACAGG [XGTACX_site7699] | 6.24 |

| Sequence | gcPBM binding intensity (ln) |
| --- | --- |
| AATTATATTTGAAATACACACATAAAAACCATATAG [CACACA_site7598] | 6.94 |
| ATTTTTATTTTATATACACACAATAATACTAGAATA [CACACA_site7810] | 6.75 |
| ATTTCATATGGTCAACGTACTCATGCATCCCTCCTT [XGTACX_site437] | 7.13 |
| AGATATATAAAATATACACACAGTAATATTTATATA [CACACA_site6767] | 6.34 |
| ATATATATCTACATATGTACATATATACATTACACA [XGTACX_site7210] | 6.78 |
| AATATTTCTATATGAACATGCAATGTATCTTTTTAT [TGCATGCA_site738] | 5.97 |
| TTTTTATGATTATACTTATATAATTTCATGATTGAA [CACACA_negctrl_site228] | 6.23 |
| AATACTTACCAAAATACACACACACCCAAAATATAT [CACACA_site8559] | 7.11 |
| TTCTAAATTAATAATACACACTTGCTAAAATCATTA [CACACA_site5733] | 6.42 |
| TTTATTTTATCATTTGCACACGCACCCCCACATAAA [CACACA_site8007] | 10.2 |
| ATTCTCCATGTTTGATGTACTCATATGACGACGGAG [XGTACX_site4923] | 6.99 |
| TTCTTATATTGTACAGTACACACCTTTATAATGTTA [CACACA_site7953] | 7.54 |
| ATATAAATAACGTGTACACACATATGTATTTATATA [CACACA_site6520] | 6.84 |
| TCCAAAATATCCTTCACACACGAACAGTTTCATTTA [CACACA_site5511] | 6.49 |
| AAAAATAAAACAATTACACACATAATTTTATTTTTA [CACACA_site928] | 6.4 |
| ATTCCACTGTTTTAGTGTACTGGTCGTTTTTTTTTT [XGTACX_site1738] | 6.31 |
| AATTTTTTATACACAAGTACAAACGCGTAGTCACTT [XGTACX_site2458] | 6.88 |
| ATTAAGTCTTATATTACACACGACATTGTAATGTAA [CACACA_site528] | 6.39 |
| TAAATTTTTTTTTTGATGCACTTAGTTATTATATTT | 7.28 |
